Data from PubChem BioAssay AID360 (National Center for Advancing Translational Sciences (NCATS), 2006).
The campaign covered roughly 48,000 compounds. About 550 (1.1%) were called active. Inconclusive results (about 4%) are left out. Rule as the data show it: active = potency below about 15 µM; inconclusive = mostly about 16 µM to 33 µM; inactive = weaker than that. The list shows a part of the results.

target: Lysosomal acid glucosylceramidase (Homo sapiens) (UniProt P04062); test: Glucocerebrosidase; details: purified enzyme, resorufin glucoside fluorescence (screen aimed at inhibitors), 20 min; series mostly up to 77 µM;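 also: the screen sought inhibitors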
UniProt P04062, sequence (P04062 whole entry, looked up): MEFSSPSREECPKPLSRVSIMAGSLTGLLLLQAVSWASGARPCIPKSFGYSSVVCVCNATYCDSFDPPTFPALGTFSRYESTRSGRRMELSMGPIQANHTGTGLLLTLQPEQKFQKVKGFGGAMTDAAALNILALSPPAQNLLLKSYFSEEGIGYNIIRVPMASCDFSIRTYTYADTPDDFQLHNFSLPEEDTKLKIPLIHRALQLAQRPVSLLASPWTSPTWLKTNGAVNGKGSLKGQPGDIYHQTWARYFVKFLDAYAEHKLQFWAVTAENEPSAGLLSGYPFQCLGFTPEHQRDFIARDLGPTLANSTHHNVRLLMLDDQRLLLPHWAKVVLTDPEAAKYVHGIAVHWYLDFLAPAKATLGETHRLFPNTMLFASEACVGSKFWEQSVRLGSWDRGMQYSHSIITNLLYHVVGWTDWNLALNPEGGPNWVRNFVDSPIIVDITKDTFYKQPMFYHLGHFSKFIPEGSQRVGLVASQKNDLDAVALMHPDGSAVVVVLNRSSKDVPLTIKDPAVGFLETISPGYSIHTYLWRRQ
In short: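 Normal human glucocerebrosidase (0.2 nM final) was assayed with resorufin β-D-glucopyranoside (30 uM final) in 50mM citric acid/KH2PO4, 10mM sodium taurocholate, 0.01% tween-20, pH 5.9. Compounds were titrated; fluorescence (Ex 548, Em 600) read after 20 min at RT.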
Potency is read from the fitted curve at half-maximal effect.

Potency, inactive:
CCCCOc1ccc(NC(=O)CN2CCN(C(=O)OCC)CC2)cc1 > 76.9 µM
CC(=O)c1c(C)[nH]c(C(=O)OCC(=O)Nc2cc(C)on2)c1C > 76.9 µM
Cc1cc2nc(C)n3c4ccccc4nc3n2n1 > 76.9 µM
Fc1ccc(-c2cc(C(F)(F)F)nc(-n3cncn3)n2)cc1 > 76.9 µM
CCCS(=O)(=O)N1CCCC(C(=O)NCCCN2CCCC2=O)C1 (centres undefined) > 76.9 µM
Cc1ccccc1NC(=O)CSc1nc(Nc2ccccc2)nc(N2CCOCC2)n1 > 76.9 µM
Cc1nnc(SCC(=O)Nc2nccs2)s1 > 76.9 µM
CCc1nc2cc(C)nn2c2nc3ccccc3n12 > 76.9 µM
CCN1CCCC1CNC(=O)c1ccc(N2CCCC2=O)cc1 (centres undefined) > 76.9 µM
CCn1c(SCC(=O)NC(=O)Nc2ccc3c(c2)OCCO3)nnc1-c1cccs1 > 76.9 µM
CC(OC(=O)c1cc2sccc2n1C)C(=O)NCc1cccs1 (centres undefined) > 76.9 µM
COc1cc(C(=O)O)nc2ccccc12 > 76.9 µM
Cc1cc(C)c(S(=O)(=O)N2CCN(c3nc4c(c(=O)n(C)c(=O)n4C)n3C)CC2)c(C)c1 > 76.9 µM
CCCN1CCCc2cc(CN)ccc21 > 76.9 µM
Cc1ccc(/C(O)=C2/C(=O)C(=O)N(Cc3cccnc3)C2c2ccccn2)cc1 (centres undefined) > 76.9 µM
Cc1cc(NC(=O)CSc2nnc(-c3ccncc3)n2N)ccc1Br > 76.9 µM
Cc1c(-c2nc(N)nc(Nc3ccc(F)cc3)n2)oc2ccccc12 > 76.9 µM
CCOC(=O)N1CCN(c2nc3c(c(=O)[nH]c(=O)n3C)n2Cc2ccccc2Cl)CC1 > 76.9 µM
Cn1c(Cc2csc(N)n2)nnc1SC/C=C/c1ccccc1 > 76.9 µM
Cc1c(N(C)C(=O)C2CCCN2S(=O)(=O)c2ccccc2)c(=O)n(-c2ccccc2)n1C (centres undefined) > 76.9 µM
Cc1cc(C)cc(N2CCCn3c2nc2c3c(=O)n(CCN3CCOCC3)c(=O)n2C)c1 > 76.9 µM
CCS(=O)(=O)N1CCC(C(=O)NCc2ccco2)CC1 > 76.9 µM
O=C(NCc1ccccn1)Nc1ccc2c(c1)OCO2 > 76.9 µM
Cn1c(C(C#N)/C(=N\S(=O)(=O)c2cccs2)c2ccccc2)nc2ccccc21 (centres undefined) > 76.9 µM
O=C(CCN1CCCCC1c1cccnc1)NCc1ccccc1 (centres undefined) > 76.9 µM
Cn1nc(C(=O)Nc2cccc(C(F)(F)F)c2)ccc1=O > 76.9 µM
CC1CCc2nc(NC(=O)c3ccco3)sc2C1 (centres undefined) > 76.9 µM
COc1cc2c(cc1NC(=O)CSc1nnnn1-c1ccccc1)oc1ccccc12 > 76.9 µM
Cc1ccccc1NC(=O)CN1CCC(NC(=O)Nc2ccccc2)CC1 > 76.9 µM
COc1ccc(NC(=O)CSc2nnc(Cc3ccccc3)o2)c(OC)c1 > 76.9 µM
Cc1ccccc1-c1nc(CS(=O)CC(=O)NCCCN(C)c2ccccc2)c(C)o1 (centres undefined) > 76.9 µM
Cc1cccc2cc(C#N)c(SCC(=O)N3CCC(C)CC3)nc12 > 76.9 µM
COc1cccc(NC(=O)c2oc3ccccc3c2NC(C)=O)c1 > 76.9 µM
CC(=O)Nc1ccc(-c2nnc(SCC(=O)n3c4c(c5ccccc53)CCCC4)n2C)cc1 > 76.9 µM
O=C1CN(C(=O)c2ccccc2)c2ccccc2N1 > 76.9 µM
COc1cccc(S(=O)(=O)Nc2ccc3sc(C)nc3c2)c1 > 76.9 µM
O=C(Nc1ccccc1N1CCCCC1)c1cccc(F)c1 > 76.9 µM
CCOC(=O)N1CCN(C(=O)Cn2nc(-c3ccc(Cl)cc3)ccc2=O)CC1 > 76.9 µM
O=C(NCc1ccc(N2CCCC2=O)cc1)c1cn(CCc2ccccc2)nn1 > 76.9 µM
Cc1ccccc1OCc1nnc2c3cnn(C)c3ncn12 > 76.9 µM
COCCn1c(Cc2ccccc2)nnc1SCC(=O)N(C)C > 76.9 µM
Nc1ccc2oc(-c3cccs3)nc2c1 > 76.9 µM
O=C(CSc1nnc(-c2cnccn2)n1Cc1ccco1)c1ccc(Cl)c(Cl)c1 > 76.9 µM
COc1ccc2c(c1)c(=O)oc1cc(OCC(=O)NC3CC3)ccc12 > 76.9 µM
O=C(O)CSc1ccc2ccccc2n1 > 76.9 µM
Cc1cc(C)nc(NC2=NCC(=O)N2CCc2c[nH]c3ccccc23)n1 > 76.9 µM
COC(=O)CCC(=O)N1CCc2cc(S(=O)(=O)N3CCc4ccccc43)ccc21 > 76.9 µM
Cc1sc(CO)c(Sc2ccccc2)c1C(=O)O > 76.9 µM
O=C(NC1(C(F)(F)F)NC(=O)N(Cc2cccnc2)C1=O)c1ccncc1 (centres undefined) > 76.9 µM
COc1ccc(NC(=O)c2cc(OC)c(OC)c(OC)c2)cn1 > 76.9 µM
O=S(=O)(c1cccc2cccnc12)n1cnc2ccccc21 > 76.9 µM
O=C(O)CCCCCN=C1CCc2ccccc2N1 > 76.9 µM
CCCCOP(=O)(c1ccc(N(C)C)cc1)C(O)c1ccccc1F (centres undefined) > 76.9 µM
CCCN(C#N)c1nc(NCC)nc(NC(C)C)n1 > 76.9 µM
COc1ccccc1Cc1nc(-c2ccc(C)cc2)no1 > 76.9 µM
Cc1ncoc1C(=O)Nc1cccc(Cl)c1C > 76.9 µM
Cc1ccc(OC(=O)CCc2c(C)nc3ncnn3c2C)cc1 > 76.9 µM
CC(=O)Nc1cc(NC(C)=O)cc(C(=O)OCC(=O)N2CC(C)OC(C)C2)c1 (centres undefined) > 76.9 µM
Cc1ccc2c(c1)N(CC(=O)N1CCc3ccccc3C1)C(=O)CO2 > 76.9 µM
